Reference: publication PMC4336329 (PLoS ONE, 2015)
In all, about 310,000 compounds went through this assay and about 14,000 (4.5%) showed an effect of 50% or more. Effects have a minus sign here. Some of the results follow.

Each compound was assayed against human ether-à-go-go-related gene (hERG) potassium channel (human, UniProt Q12809) (assay: primary screen, population patch clamp on CHO cells stably expressing hERG).
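Also: peak tail current of the secondary pulse compared with the same well before compound.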

human ether-à-go-go-related gene (hERG) potassium channel, sequence (Q12809 whole entry, looked up): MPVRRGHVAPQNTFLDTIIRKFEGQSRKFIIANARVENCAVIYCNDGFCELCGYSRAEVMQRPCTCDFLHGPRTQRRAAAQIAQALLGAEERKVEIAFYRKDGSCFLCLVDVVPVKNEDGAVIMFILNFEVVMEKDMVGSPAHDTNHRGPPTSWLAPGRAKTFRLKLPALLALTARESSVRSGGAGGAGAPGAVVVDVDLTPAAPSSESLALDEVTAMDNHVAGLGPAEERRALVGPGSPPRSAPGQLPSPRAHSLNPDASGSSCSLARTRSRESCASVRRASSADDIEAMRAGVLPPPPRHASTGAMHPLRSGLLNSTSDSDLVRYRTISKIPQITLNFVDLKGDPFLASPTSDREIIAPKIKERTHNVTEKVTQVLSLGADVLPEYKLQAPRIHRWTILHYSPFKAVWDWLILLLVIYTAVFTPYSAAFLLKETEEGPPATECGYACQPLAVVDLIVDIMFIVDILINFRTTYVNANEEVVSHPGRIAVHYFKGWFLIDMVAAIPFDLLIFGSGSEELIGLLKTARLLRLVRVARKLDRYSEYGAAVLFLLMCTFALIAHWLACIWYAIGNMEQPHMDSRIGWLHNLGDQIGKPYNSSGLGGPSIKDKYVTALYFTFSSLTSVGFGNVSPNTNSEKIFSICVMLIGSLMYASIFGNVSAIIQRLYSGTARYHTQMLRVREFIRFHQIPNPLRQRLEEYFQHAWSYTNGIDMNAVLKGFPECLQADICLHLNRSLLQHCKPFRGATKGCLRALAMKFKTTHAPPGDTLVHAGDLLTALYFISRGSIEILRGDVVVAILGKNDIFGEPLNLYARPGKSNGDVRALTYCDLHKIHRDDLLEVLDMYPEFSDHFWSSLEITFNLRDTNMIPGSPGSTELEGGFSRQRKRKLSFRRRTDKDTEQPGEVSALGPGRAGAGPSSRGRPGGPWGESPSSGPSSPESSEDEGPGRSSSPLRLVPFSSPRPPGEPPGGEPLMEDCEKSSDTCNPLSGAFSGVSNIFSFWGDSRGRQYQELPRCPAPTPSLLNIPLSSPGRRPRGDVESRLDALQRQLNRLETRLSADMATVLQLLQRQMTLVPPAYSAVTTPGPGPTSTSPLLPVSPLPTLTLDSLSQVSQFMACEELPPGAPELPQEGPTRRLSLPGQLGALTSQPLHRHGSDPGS

Point of comparison: `Cc1cc(NC(=O)COC(=O)c2ccco2)no1`, “hERG current change (%, negative = inhibition) at 10uM” value 17.5%. Against it:
- Cc1ccc(S(=O)(=O)N2CCCC(NC(=O)N3CCN(c4ccccc4)CC3)C2)cc1 (stereo not drawn) — lower, -33.6%
- O=C1Nc2ccc(F)cc2C12Nc1ccccc1-c1nnc(SCc3ccccc3Cl)nc1O2 (stereo not drawn) — lower, 1.27%
- Cc1ccc(S(=O)(=O)N2CCCC2)cc1C(=O)NCc1ccccc1CN1CCCC1 — lower, -52.3%
- Cl.O=C(CCN1CCc2ccccc2C(O)(c2ccccc2)C1)c1ccc2c(c1)OCCO2 (stereo not drawn) — lower, 0.662%
- O=C(NC(=S)NCc1ccccc1)c1ccccc1F — lower, 3.19%
- Cc1cc(C)c(C(=O)CSc2n[nH]c(-c3ccncc3)n2)c(C)c1 — lower, 8.1%
- O=c1cc(CN2CCCc3ccccc32)nc2sccn12 — lower, -8.72%
- CCCCCN(C(=O)CCC(=O)OCC(=O)N(CC)C1CCCCC1)c1c(N)n(CCCC)c(=O)[nH]c1=O — lower, 13.8%
- CCOC(=O)CSC1=C(C#N)C(c2ccc(C)s2)CC(=O)N1 (stereo not drawn) — lower, -3.86%
- O=C(CSc1nc2ccccc2[nH]1)NCc1ccco1 — lower, -1.16%
- O=C(NCCCN1CCN(c2cccc(Cl)c2)CC1)c1cccc(N2CCCC2=O)c1 — lower, -38%
- COC(=O)Cc1ccc(NC(=S)N2CCN(c3ccc(OC)cc3)CC2)cc1 — lower, 4.41%
- C=C(C)C1CC=C(C)/C(=N/NC(=S)Nc2ccccc2)C1 (stereo not drawn) — higher, 43%
- CCOC(=O)CCCCC(=O)c1[nH]c(=O)[nH]c1CSc1nc(C)cc(C)n1 — lower, -14.1%
- CC(NC(=O)c1ccccc1F)c1nnc(SCC(=O)NC2CCCC2)n1C (stereo not drawn) — higher, 24.7%
- O=C(c1cn(-c2ccccc2)nc1-c1ccccc1)N1CCOCC1 — lower, -4.6%
- COc1cc(C(CCN2CCN(c3ccccc3)CC2)c2c(OC)cc(OC)c3ccc(=O)oc23)cc(OC)c1OC (stereo not drawn) — lower, -8.86%
- COc1cc(/C=C2/NC(=O)NC2=O)ccc1OCC(=O)Nc1ccc(F)cc1 — higher, 33.2%
- Cc1ccc2nc(NC(=O)C3CSC4(C)CCC(=O)N34)sc2c1 (stereo not drawn) — lower, -12%
- Clc1ccc(-c2[nH]ncc2N=Nc2ccccc2)cc1 — lower, 15.3%
- CCCCOC(=O)c1sc2nc(N3CCOCC3)c3c(c2c1N)CC(C)(C)OC3 — lower, 9.29%
- COCCNC(=O)C1CCC(CNS(=O)(=O)c2ccccc2)CC1 (stereo not drawn) — lower, 5.83%
- CCSc1ncnc2sc3c(c12)CCC3 — lower, 15.2%
- COc1cccc(CN2C(=O)c3ccccc3S2(=O)=O)c1 — lower, -7.79%
- O=C(NCCc1csc(-c2ccccc2)n1)c1ccccc1F — lower, -49.5%
- COc1ccc(C2CC(=O)Nc3cc(C)c(C)cc32)c(OC)c1OC (stereo not drawn) — lower, 4.45%
- COC(=O)C1=C(c2ccc(OC)c(OC)c2)C[C@@H]2CC[C@H]1N2C(=O)NCCNC(C)=O — lower, 4.98%
- Cc1cc(C(=O)N(Cc2nnc(-c3ccc(Cl)cc3)o2)C(C)C)c2ccccc2n1 — lower, -58.5%
- Cc1oc(-c2ccccc2)cc1C(=O)Nc1ccccc1 — lower, -8.72%
- Cc1cc(=O)oc2c3c(cc(OCC(=O)N[C@@H](C)C(=O)O)c12)OC(C)(C)CC3 — lower, 16.5%
- Cn1cccc1/C=N/NC(=O)Cc1cccs1 — lower, 6.58%
- CN(C)S(=O)(=O)N1CCN(c2ccc([N+](=O)[O-])c(N3CCOCC3)c2)CC1 — lower, -20.3%
- Nc1nc(-c2ccccc2)c(-c2ccccc2)n1N — lower, -6.8%
- Cc1nn(-c2ccccc2)c(C)c1/C=N/NC(=O)c1ccccc1O — lower, -2.48%
- CCOc1ccc(CN(C)C(=O)c2ccc(NC(=O)CC3SC(N4CCCC4)=NC3=O)cc2)cc1 (stereo not drawn) — lower, 7.53%
- O=C(c1nc2ncccn2n1)N1CCN(c2ccccc2)CC1 — lower, -2.09%
- O=C1c2ccccc2C(=O)C1c1ccnc2ccccc12 — lower, 4.14%
- CNC(=O)/C(C#N)=C/c1cccc(Oc2ccccc2)c1 — lower, -18.6%
- COC(CNC(=O)c1ccc2c(=O)n(Cc3ccc(Cl)cc3)c(=S)[nH]c2c1)OC — lower, 15.5%
- O=C(Cc1ccccc1[N+](=O)[O-])NCCc1ccc(F)cc1 — lower, 0.102%
- Cc1cc(C(=O)CSc2cccc[n+]2[O-])c(C)n1-c1ccccc1 — lower, 13.9%
- O=C1CSC(=Nc2ccc(Cl)cc2)N1 — lower, 9.39%
- COc1ccc(NC(=O)c2ccccc2C)cc1 — lower, 14.9%
- CN(C)C=O.COc1ccccc1NC(=O)C1=C(C)NC(=O)NC1c1ccccc1[N+](=O)[O-] (stereo not drawn) — lower, 7.42%
- N#CCC(=O)NCC1(c2ccccc2)CCCC1 — lower, 5.21%
- O=S(=O)(N/N=C/c1ccccc1OCc1ccc(Cl)cc1)c1ccccc1 — lower, -4.84%
- CCOC(=O)N1CCN(Cc2c(NC(=O)c3ccco3)sc(C)c2C)CC1 — lower, 11.6%
- C=C(C)COc1ccc(-c2[nH]ncc2Oc2ccccc2OCC)c(O)c1 — lower, 4.65%
- O=Cc1ccc(-c2cc(Cl)ccc2Cl)[nH]1 — lower, 5.9%
- Cc1cc(C(=O)NCCC(C)C)c2ccccc2n1 — lower, 10.3%
- COc1ccc(-c2nnc(SCc3ccccn3)n2C)cc1 — lower, -9.22%
- O=C(NC1CCN(Cc2ccccc2)CC1)c1cncc(Br)c1 — lower, -64.1%
- Cc1nn(-c2ccccc2)c2nc(-c3ccccc3)cc(C(=O)N3CCOCC3)c12 — lower, -25.9%
- COc1ccc(C(CNC(=O)c2cccc(Br)c2)N2CCCC2)cc1 (stereo not drawn) — lower, -31.6%
- O=C(CCNC(=O)C1CCN(S(=O)(=O)c2ccccc2)CC1)NCc1ccc(Cl)cc1 — lower, 8.88%
- CSc1nc(-c2ccccc2)c(-c2ccccc2)[nH]1 — lower, -2.5%
- COc1cc(C2CC(c3cccnc3)=NN2c2ccc(F)cc2)cc(OC)c1OC (stereo not drawn) — lower, -18.7%
- Cc1ccc(-c2[nH]n3c(=O)c4c(nc3c2C)CCCC4)cc1 — lower, -14.7%
- CC(C)(C)NC(=O)C(=O)N/N=C/c1ccc(Br)cc1 — lower, 14.7%
- O=Cc1cn(-c2ccc(F)cc2)c2ccccc12 — lower, 3.99%
- OC1CCN(C(=S)Nc2ccc(Oc3ccccc3)cc2)CC1 — lower, 0.0974%
- COC(C)(C)[C@@H](O)COc1c2ccoc2cc2oc(=O)ccc12 — lower, 3.23%
- CN(C(=O)C1CCN(c2ncnc3c2nc2n3CCCCC2)CC1)C1CCCCC1 — lower, -30.2%
- CCCn1c(SCCN2CCOCC2)nc2c1c(=O)n(C)c(=O)n2C — lower, 14.2%
- Cc1cccc(OCC(=O)N/N=C\c2cc3c(cc2[N+](=O)[O-])OCO3)c1C — lower, -7.82%
- Cc1cccc(C(=O)NNC2=CC(=O)CC(C)(C)C2)c1O — lower, 15%
- O=C1CCCc2ccccc2N1Cc1ccccc1 — lower, 5.83%
- Cc1ccc(NC(=S)NC(NC(=O)c2ccco2)C(Cl)(Cl)Cl)cc1 (stereo not drawn) — lower, -3.41%
- O=C1CC[C@H](OCc2ccccc2)CCN1[C@H](CSc1ccccc1)Cc1ccccc1 — lower, -51%
- COC(=O)/C=C/c1ccc(-n2cncn2)cc1 — lower, 6.87%
- CN(Cc1cccnc1)C(=O)CNC(=O)COc1ccccc1 — lower, 16.9%
- COc1ccc(OC)c(NC(=O)Nc2ccc(Cl)cc2)c1 — lower, 2.47%
- CCOC(=O)C1(c2csc(N)n2)COC(=O)C1 (stereo not drawn) — lower, 8.49%
- Cn1c(=O)c2c(nc(CN3CCOCC3)n2CCCO)n(C)c1=O — lower, 17%
- COc1ccc(S(=O)(=O)N2CCN(C(=O)C3CC3)CC2)cc1 — lower, 4%
- CCC(=O)NCCn1c(C)cc2ccccc21 — lower, -0.267%
- Cc1ccc(CN(c2ccc(C(=O)NCc3ccc4c(c3)OCO4)cc2)S(C)(=O)=O)cc1 — lower, 5.34%
- O=C(O)COc1cccc(/C=C2/SC(=S)N(Cc3ccccc3)C2=O)c1 — lower, 0.27%
- CC(C)c1csc(CN2CCC(CO)(Cc3ccccc3)CC2)n1 — lower, -9.39%
- CCC(C)NC(=O)C1c2ccccc2C(=O)N1Cc1ccccc1OC (stereo not drawn) — lower, -16.7%
- COC(=O)c1sc(NC(=O)COc2c(C)cccc2C)nc1C — lower, -0.354%
- CCOC(=O)c1c(C)[nH]c(C)c1S(=O)(=O)N(C)CC(=O)NCc1cccc(C)c1 — lower, -13.3%
- Cc1cc(C(=O)O)c2ccccc2n1 — lower, 12.6%
- Cc1onc(-c2c(F)cccc2Cl)c1C(=O)NCc1cccs1 — lower, -21.2%
- O=C(Cc1ccc(S(=O)(=O)N2CCOCC2)s1)Nc1ccccc1N1CCCC1 — lower, 2.61%
- Cc1c(-c2ccccc2)oc2c(C(=O)OCC(=O)Nc3ccc(C(N)=O)cc3)cccc2c1=O — lower, 2.76%
- O=C(/C=C/c1ccco1)NCCCN1CCN(CCCNC(=O)/C=C/c2ccco2)CC1 — lower, -43.5%
- COc1ccc(CCNC(=O)COC(=O)Cn2cnc3c2c(=O)n(C)c(=O)n3C)cc1 — lower, 7.36%
- COc1ccc(C(=O)CSc2nc3nc(C)cc(C)n3n2)cc1OC — lower, -7.48%
